Data: the BET-seq Pho4 binding data (Le et al. 2018)
This is one part of the list. These are noisy estimates, calculated here from bound and input reads.

Each sequence was assayed against T1, Pho4 (S. cerevisiae) (UniProt P07270) (assay: relative binding free energy (BET-seq); higher = weaker binding). Conditions: reference: library average.
T1 sequence: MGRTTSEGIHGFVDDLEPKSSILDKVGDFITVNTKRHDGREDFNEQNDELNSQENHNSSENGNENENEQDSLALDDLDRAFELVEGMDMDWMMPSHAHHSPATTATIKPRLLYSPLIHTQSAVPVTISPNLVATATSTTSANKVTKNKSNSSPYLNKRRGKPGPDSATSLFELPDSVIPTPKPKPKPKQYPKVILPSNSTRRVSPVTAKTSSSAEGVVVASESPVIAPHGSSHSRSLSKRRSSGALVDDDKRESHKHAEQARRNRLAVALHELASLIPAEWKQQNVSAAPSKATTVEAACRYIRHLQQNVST

Sequence | relative binding free energy [kcal/mol]
GGCTGCACGTGGAGCT | 0.21
GTGTGCACGTGGAGTT | 0.06
GTAATCACGTGCGTGT | 0.08
TGAGCCACGTGGTGTC | -0.06
ACTTGCACGTGTTGGG | -0.02
TTTATCACGTGACGTT | 0.25
ATCAGCACGTGGTGGG | -0.12
GTTTGCACGTGAGGCA | 0.23
CGGATCACGTGGCGGG | 0.13
AGGATCACGTGATGCG | 0.17
GTGGGCACGTGTTCTG | -0.12
GTAAACACGTGGTTGG | 0.01
ACGGACACGTGGGTGG | -0.04
GTGTACACGTGCGATT | 0.04
ATTGTCACGTGAGGTT | 0.29
TGGTACACGTGTGGAC | 0.03
TGCGGCACGTGTTGTC | -0.02
TTAGTCACGTGCTTGG | -0.03
AACGGCACGTGGTGGG | -0.21
TTTATCACGTGATTTC | 0.28
GCCGGCACGTGATGGT | 0.24
CTTAACACGTGATTTA | 0.26
TAGTGCACGTGGTGAG | 0
TCGTGCACGTGTGGAG | 0.05
GGGCCCACGTGATGGG | 0.05
TGACGCACGTGGTTGT | -0.12

Sequence | relative binding free energy [kcal/mol]
TATCGCACGTGGGGTC | -0.21
TGTACCACGTGTTAGT | -0.01
CGATACACGTGGAGGG | -0.06
GTGTGCACGTGCAGAT | 0.13
TGGGACACGTGGTGGC | 0.06
GGTAGCACGTGTGTTC | 0.02
GGTCGCACGTGCGAGT | -0.15
TGTTGCACGTGTAAGG | 0.13
TTGGGCACGTGCAGTC | -0.05
TGATTCACGTGCAGTT | 0.35
AAGAACACGTGAGTGG | 0.39
GGGTACACGTGCTGGT | 0.1
GTTGTCACGTGAGCTT | 0.26
GTTACCACGTGTAGTG | 0.02
TATATCACGTGTCGGA | 0.34
TGTAACACGTGGTATG | -0.13
CGGTGCACGTGGGGGA | -0.19
GTAGGCACGTGAGTGA | 0.07
AGGTACACGTGAGTAA | 0.26
TAACGCACGTGGGGTC | -0.1
GGTCGCACGTGTAATG | 0.1
GGAGGCACGTGTGGGC | 0.03
GGTCTCACGTGAGGGC | 0.32
CGTGTCACGTGACTTT | 0.15
TGATGCACGTGATGCT | -0.02
GAGATCACGTGTGTGG | 0.32

Sequence | relative binding free energy [kcal/mol]
GGTATCACGTGTGTGT | 0.26
TTGCACACGTGGGCGG | 0.01
GGAGTCACGTGAGGGG | 0.33
GATGGCACGTGCATGT | -0.12
GTACTCACGTGTTATA | 0.28
TTTCTCACGTGCTTTG | 0.18
TTGGGCACGTGGAGGC | -0.03
TCTTGCACGTGTTGGC | 0.12
TATAGCACGTGGGAAA | 0.05
GTGGGCACGTGCGTAG | -0.17
AATAGCACGTGGATGG | 0
AGTGTCACGTGGGAAT | -0.02
CGCGTCACGTGGATGT | 0.13
AAGGTCACGTGCGGGA | 0.02
GTTGACACGTGTAAGT | 0.21
AGGTCCACGTGGTGCT | 0.05
TTAATCACGTGGTGTT | -0.05
GATGTCACGTGGGCTT | 0.17
TTCGTCACGTGTTCGT | -0.01
TTTTGCACGTGTCCTT | -0.06
TTGTTCACGTGGGTAT | 0.19
GGAGTCACGTGATAGT | 0.17
CGAGGCACGTGTGGGA | -0.08
GATGACACGTGATTTT | 0.11
CGAGTCACGTGGAAGG | 0.21
ATTTTCACGTGCAGTA | 0.18

Sequence | relative binding free energy [kcal/mol]
GGAGTCACGTGTCGGT | 0.12
TTGTACACGTGTCAGT | -0.02
TGAGTCACGTGGAGGT | 0.07
GGCGGCACGTGGGCGC | -0.33
TTGACCACGTGGATGG | 0.04
GTAATCACGTGGAGTA | 0.23
GTGGCCACGTGGGGGT | -0.17
TGTATCACGTGCGGGC | -0.03
AGGGGCACGTGCTCGG | -0.21
CGTTTCACGTGGAGAG | 0.33
GGGAGCACGTGTTAGT | -0.06
GGTAGCACGTGTGAAA | 0.15
TTGCTCACGTGGTTAT | 0.1
GGAGGCACGTGGTGTG | -0.15
ATGAACACGTGGTTGT | -0.11
TCGTACACGTGGGTAG | -0.06
TGTCACACGTGGGGGC | -0.1
AAAGACACGTGATGTT | 0.14
GGTTCCACGTGGTTGT | 0.06
TGAGTCACGTGTATTG | 0.03
TATAACACGTGTTTGA | -0.18
AGTTTCACGTGAGGAT | 0.37
TATTGCACGTGTCGAT | -0.06
CTTGGCACGTGAGGGG | 0.08
GGGGTCACGTGATGCG | 0.23
TCTTGCACGTGGTGGA | 0.06

Sequence | relative binding free energy [kcal/mol]
GTTGGCACGTGTAGTC | 0.09
TGTATCACGTGTTAAA | 0.12
ATTGGCACGTGTGCAG | -0.33
CTGTGCACGTGAGGAT | 0.34
TGGAGCACGTGAGTAA | 0.25
CGCGGCACGTGCGGGT | -0.15
ACTTACACGTGGTTTA | 0.04
GTTGACACGTGTTGGG | 0.09
GGAGTCACGTGGATTT | 0.31
ACGGGCACGTGTGTGA | -0.07
TTGGCCACGTGTTAAG | 0
TGTCGCACGTGGATAT | -0.01
GTAACCACGTGGTTGG | -0.04
AGGGGCACGTGTCGGT | -0.07
GGTACCACGTGTAGGG | -0.26
TTTTTCACGTGTGCAT | 0.3
TTATACACGTGGAATG | -0.02
TTCGTCACGTGGTTTG | 0.14
TAGTCCACGTGGGATT | 0.06
TTAGACACGTGGACAT | 0.25
AGTAGCACGTGGTCGT | -0.12
TTTAGCACGTGTTAAT | -0.05
CGGTACACGTGTTGGT | 0.1
CTGTGCACGTGTGGCT | -0.06
TTCTGCACGTGTTTGT | 0.04
ATAGCCACGTGATGTA | 0.17

Sequence | relative binding free energy [kcal/mol]
AGTGTCACGTGAGGGT | 0.21
TTGGACACGTGTTTGC | 0.03
GGGCTCACGTGTTAGT | 0.33
TGTATCACGTGCCGTG | 0.11
AAGGGCACGTGGCATG | -0.2
TTAAGCACGTGTGGTT | -0.07
ATTGACACGTGGGGTC | -0.07
ATTTACACGTGTTGGC | 0.15
TCAGGCACGTGGGGGG | -0.16
GTATGCACGTGTGTGT | 0.09
GTAGCCACGTGGTTGG | -0.08
GTATTCACGTGTCGAA | 0.27
CAGGACACGTGCAGGG | 0.06
GCTATCACGTGAGGTG | 0.38
ATTTGCACGTGGGGGA | -0.1
GCTTCCACGTGGGTTG | -0.04
TAAATCACGTGATAGG | 0.22
TTCGGCACGTGTGGAT | 0.06
GGGTCCACGTGTGAAT | 0.13
AGCGGCACGTGTAGGG | -0.05
GTTTGCACGTGTCAAA | 0.17
ATCGGCACGTGGTAAT | -0.08
TGAGTCACGTGCATTA | 0.23
AATTGCACGTGGATTT | 0.1
TTGAACACGTGGAGGA | 0.13
TGTGGCACGTGGCGTG | -0.21

Sequence | relative binding free energy [kcal/mol]
AGTTGCACGTGCTGCG | -0.09
TATGTCACGTGAAGCG | 0.24
TGTTTCACGTGGGTGG | 0.21
GATGGCACGTGGGTTG | -0.15
CTGGGCACGTGTGTTC | -0.01
CGTGTCACGTGAAGGA | 0.29
GGGGGCACGTGTTTAT | -0.04
GAGAACACGTGGGGAA | 0.04
CTGGACACGTGATGGG | 0.25
ATGCGCACGTGTGTCT | -0.04
GTTTTCACGTGAGATG | 0.4
TGTTACACGTGGTAAT | 0.11
AATAACACGTGTGGAT | 0.14
ATACACACGTGGGGGG | -0.25
GTACGCACGTGCTGGG | -0.18
TGAATCACGTGGCTGT | -0.09
AATGGCACGTGCGCGT | -0.3
GTGGGCACGTGATTCT | 0.1
CTGCGCACGTGAGTGT | 0.04
AGTTGCACGTGGGCTA | -0.08
GTTGGCACGTGTGAAT | 0.11
TCTTTCACGTGGGGAA | 0.28
TACTGCACGTGAGTGA | 0.15
AGGAACACGTGTTGGG | 0.03
AGGGTCACGTGTTTAC | 0.04
AGTGGCACGTGTGGTA | -0.01

Sequence | relative binding free energy [kcal/mol]
GGCAGCACGTGGTGCT | -0.07
AGGTGCACGTGAGCGG | 0.19
TCTGTCACGTGCGTGG | -0.09
TAGTTCACGTGCGGTC | 0.28
TGTATCACGTGCGGGG | -0.04
TTTATCACGTGGGGTC | -0.02
ACTTGCACGTGGTGGT | -0.06
TGGTGCACGTGGATCT | 0.01
CGGCACACGTGGGAGG | -0.15
GATTACACGTGTTAAG | 0.14
GGTTGCACGTGAGTTT | 0.36
TCTCTCACGTGTATTT | 0.19
AGCGGCACGTGGTTTC | -0.08
GTTTTCACGTGGAGTT | 0.32
TTGGTCACGTGGCCAG | 0.09
GGAGTCACGTGAGTAT | 0.38
TAAGGCACGTGGGGGT | -0.19
GTATACACGTGGGCAT | -0.03
GGTTACACGTGAGGTA | 0.38
AAAGTCACGTGGCTAT | 0.24
TGGGTCACGTGTGGGA | 0.17
AAGGCCACGTGTTTGT | -0.09
GTGATCACGTGCTGGG | 0.22
GCATTCACGTGGTGTA | 0.16
TTAGCCACGTGCGTGT | -0.12
TATTACACGTGATCTT | 0.12

Sequence | relative binding free energy [kcal/mol]
TCACGCACGTGTTGTG | -0.07
GGTCGCACGTGGTTGC | -0.07
AGTGGCACGTGTTCGC | -0.1
GGGGCCACGTGAAATT | 0.29
GAGTACACGTGAAGGT | 0.24
TAGTGCACGTGTGCGC | -0.03
ACTATCACGTGTGTCT | 0.3
GTCAGCACGTGTTAGT | 0.04
CTTTTCACGTGTGTCT | 0.2
TGGGGCACGTGGGCGG | -0.2
GACAACACGTGAGGGG | 0.26
GTCTACACGTGATGTT | 0.28
GTGTACACGTGGTCGT | 0.19
TTCGGCACGTGTGTTG | -0.03
TATTACACGTGGTACG | -0.05
CTGAGCACGTGCGGGG | -0.19
TTGACCACGTGTGGTG | 0.02
TCGGGCACGTGGAAGG | -0.13
TCATACACGTGAGGTT | 0.19
TTTGACACGTGATGGT | 0.15
GTTGTCACGTGATGAA | 0.22
GGAAGCACGTGTAGGG | -0.2
